Measurements as given in PubChem BioAssay AID1345083 (National Center for Advancing Translational Sciences (NCATS), 2018).
Screen size: about 94,000 compounds; about 6,200 (6.6%) were called active. The shares of active, inactive and inconclusive entries below differ from those in the screen. The call rests on the fitted dose curve; in most records, active means well fitted inhibition curve with a large enough effect; inconclusive means small, poorly fitted or top-dose-only effect; inactive means flat fitted curve, though single readings scatter. A potency beside an inconclusive call is a rough fit, not a confirmed value.

Assay: Cytotoxic Profiling in HEK 293 Cell Line of Diverse Libraries Using Quantitative High-Throughput Screening; further: nearly all actives have a fitted effect of over 60% in size
Settings: HEK 293 viability, ATP luminescence (CellTiter-Glo), 48-72 h; series mostly up to 115 µM
How it was run: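 HEK 293 seeded at 250 cells/well receive compound via pintool. After 48 or 72 hr at 37 degree Celsius, 5% CO2 and 95% humidity, CellTiter-Glo is dispensed and luminescence read following 10 min at room temperature.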
Potency means the concentration at half of the fitted maximal effect; tags describe the fitted curve by direction and shape.

SMILES	Potency
O=[N+]([O-])c1cccc(-c2noc([C@@H]3Cc4nc[nH]c4CN3CC3CCCCC3)n2)c1	active: 56.2 µM
Cc1ccccc1NC(=O)c1cnc2c(c1)N(Cc1ccccc1)CCC2	inconclusive: 17.8 µM [inhibitor, full curve, poor fit]
Cc1oc(C2CCN(C(=O)C3CCCN(S(=O)(=O)N4CCCC4)C3)CC2)nc1C(=O)N1CCCC1 (configuration not stated)	inconclusive: 79.4 µM [inhibitor, partial curve]
Cn1cc(-c2cc(=O)c3ccnc(Nc4ccc5[nH]ccc5c4)c3o2)cn1	inconclusive: 39.8 µM [inhibitor, full curve]
Cc1ccccc1NC(=O)C1CC(=O)N(c2n[nH]c3cc(Br)ccc23)C1 (configuration not stated)	inactive
CC1=C[C@@H](CNC(=O)C2CCC2)[C@H](C(C)C)C[C@H]1Cc1nc2ccc(F)cc2[nH]1	active: 28.2 µM
COc1ccc(-c2nn(-c3ccccc3C)cc2CN2CCCC(C)(O)C2)cc1F (configuration not stated)	inconclusive: 35.5 µM [inhibitor, partial curve, poor fit]
Cc1ccc(C(=O)Nc2cc(-c3ccncc3)nn2-c2ccccc2)cc1	inconclusive: 50.1 µM [inhibitor, partial curve, poor fit]
CSCCNC(=O)C1CCN(c2nccc(Nc3ccccc3Cl)n2)CC1	inconclusive: 39.8 µM [inhibitor, partial curve, poor fit]
COc1ccc2c(C)c(C(=O)N3CCC(c4nc(C(C)C)no4)CC3)oc2c1	inconclusive: 100 µM [inhibitor, single point]
O=C1Nc2ccc(-c3ccccc3F)cc2C(=O)N2C[C@@H](NS(=O)(=O)c3ccc(F)cc3)C[C@@H]12	inconclusive: 89.1 µM [inhibitor, single point]
CCCN(CC1CCOC1)C(=O)NCC(C)C (configuration not stated)	inactive
CN1C[C@@H](NS(=O)(=O)c2ccc(C#N)cc2)C[C@H]1c1nc(-c2cccnc2)no1	inconclusive: 112 µM [inhibitor, single point]
c1ccc(CNc2nc(-c3ccccc3)no2)cc1	inconclusive: 44.7 µM [inhibitor, partial curve]
CN(C)C(C(=O)N1CCC(F)(F)CC1)c1ccccc1F (configuration not stated)	inactive
O=C(NCc1ccc2c(c1)OCO2)C1CCN(c2nc3ncccc3o2)CC1	inconclusive: 89.1 µM [inhibitor, single point]
NC(=O)COC[C@@H]1CN(CC2CCCCC2)C[C@H]1c1ccncc1	inconclusive: 63.1 µM [inhibitor, partial curve, poor fit]
